One series deals with Histone deacetylase 3 (Homo sapiens, UniProt O15379).
Series [1] has as its target T1, Protein deacetylase HDAC6 (Homo sapiens, UniProt Q9UBN7).
T1 sequence (Q9UBN7 whole entry): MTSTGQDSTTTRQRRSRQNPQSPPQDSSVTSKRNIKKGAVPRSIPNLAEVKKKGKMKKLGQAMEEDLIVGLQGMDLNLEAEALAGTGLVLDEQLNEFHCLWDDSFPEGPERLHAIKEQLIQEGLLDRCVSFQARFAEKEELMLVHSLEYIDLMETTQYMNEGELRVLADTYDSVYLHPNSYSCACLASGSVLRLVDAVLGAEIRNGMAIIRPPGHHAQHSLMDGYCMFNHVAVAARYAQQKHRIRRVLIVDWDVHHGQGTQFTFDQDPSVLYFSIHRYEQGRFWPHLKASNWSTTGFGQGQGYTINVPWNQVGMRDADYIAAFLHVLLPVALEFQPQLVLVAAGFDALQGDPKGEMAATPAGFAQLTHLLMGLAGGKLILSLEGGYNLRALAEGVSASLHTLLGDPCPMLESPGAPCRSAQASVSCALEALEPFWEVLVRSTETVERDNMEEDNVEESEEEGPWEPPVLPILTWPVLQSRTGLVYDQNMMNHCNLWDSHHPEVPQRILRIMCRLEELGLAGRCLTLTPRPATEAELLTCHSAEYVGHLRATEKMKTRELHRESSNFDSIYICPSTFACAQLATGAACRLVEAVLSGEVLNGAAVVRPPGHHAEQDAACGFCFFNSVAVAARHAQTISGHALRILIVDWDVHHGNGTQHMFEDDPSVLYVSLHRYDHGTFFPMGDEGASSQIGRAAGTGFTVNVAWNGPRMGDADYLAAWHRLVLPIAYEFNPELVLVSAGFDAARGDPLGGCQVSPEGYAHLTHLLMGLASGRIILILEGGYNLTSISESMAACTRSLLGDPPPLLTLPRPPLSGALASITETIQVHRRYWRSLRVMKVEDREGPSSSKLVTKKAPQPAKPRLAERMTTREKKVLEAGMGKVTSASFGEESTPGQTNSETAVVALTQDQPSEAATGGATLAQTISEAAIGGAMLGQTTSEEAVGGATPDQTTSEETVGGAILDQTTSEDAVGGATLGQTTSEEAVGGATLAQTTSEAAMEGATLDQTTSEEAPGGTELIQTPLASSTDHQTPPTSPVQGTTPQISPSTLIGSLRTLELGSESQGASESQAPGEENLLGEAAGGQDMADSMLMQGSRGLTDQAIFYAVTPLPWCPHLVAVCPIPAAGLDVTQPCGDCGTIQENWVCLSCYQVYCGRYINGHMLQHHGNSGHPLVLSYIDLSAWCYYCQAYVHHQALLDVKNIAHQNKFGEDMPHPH

The next series concerns the target Histone deacetylase 1 (Homo sapiens, UniProt Q13547).
Series [2] can be described thus: in vivo. As to conditions: KM, mouse, po, 20 mg/kg.
Series [3] can be described thus: in vivo. As to conditions: KM, mouse, po, 20 mg/kg. The source holds these as a separate data set.

Sequence of Histone deacetylase 1 (Q13547 whole entry): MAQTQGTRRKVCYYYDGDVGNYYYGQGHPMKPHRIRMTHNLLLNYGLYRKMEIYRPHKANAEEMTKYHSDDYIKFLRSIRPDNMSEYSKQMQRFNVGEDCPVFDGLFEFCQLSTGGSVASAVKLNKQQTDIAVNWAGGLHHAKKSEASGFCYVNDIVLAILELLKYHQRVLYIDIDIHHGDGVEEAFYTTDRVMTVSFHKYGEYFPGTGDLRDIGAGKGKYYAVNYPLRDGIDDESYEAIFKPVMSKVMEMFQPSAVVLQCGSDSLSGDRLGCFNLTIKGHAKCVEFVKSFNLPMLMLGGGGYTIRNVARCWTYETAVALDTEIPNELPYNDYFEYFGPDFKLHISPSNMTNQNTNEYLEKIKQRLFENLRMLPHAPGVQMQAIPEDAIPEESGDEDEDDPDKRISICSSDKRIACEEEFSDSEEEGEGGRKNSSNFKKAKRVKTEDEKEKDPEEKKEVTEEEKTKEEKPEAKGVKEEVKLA
Sequence of Histone deacetylase 3 (O15379 whole entry): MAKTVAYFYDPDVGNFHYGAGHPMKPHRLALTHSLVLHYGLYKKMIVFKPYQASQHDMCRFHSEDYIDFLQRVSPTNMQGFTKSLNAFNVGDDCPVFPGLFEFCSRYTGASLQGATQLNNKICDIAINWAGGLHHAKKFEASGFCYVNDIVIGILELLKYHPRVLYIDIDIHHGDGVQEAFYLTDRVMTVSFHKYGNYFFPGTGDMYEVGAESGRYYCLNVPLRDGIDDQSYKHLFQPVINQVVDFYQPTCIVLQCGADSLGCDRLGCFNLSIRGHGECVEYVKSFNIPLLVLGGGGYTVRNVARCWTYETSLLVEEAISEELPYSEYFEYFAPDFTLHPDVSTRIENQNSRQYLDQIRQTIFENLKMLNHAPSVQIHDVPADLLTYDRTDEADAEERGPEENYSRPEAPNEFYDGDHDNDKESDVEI

As for `CCCCCCCC(=O)SCC/C=C/[C@@H]1CC(=O)NCc2nc(cs2)-c2nc(cs2)C(=O)N[C@@H](C(C)C)C(=O)O1`, the figures for the IC50 (at Histone deacetylase 3; in series [1]) were 16800 nM and 14700 nM, respectively.

At Histone deacetylase 1, `CC(C)Cc1sc(-c2nccs2)nc1C(=O)NCCCCC(=O)NO` displayed a half-maximal inhibitory concentration (IC50) of 50 nM.

On Histone deacetylase 1, `CCc1sc(-c2nccs2)nc1C(=O)NCCCCC(=O)NO` registered an IC50 of 30 nM.

Turning to `CC(C)=Cc1sc(-c2nccs2)nc1C(=O)NCCCCC(=O)NO`, in series [1], the IC50 came to 180 nM.

Take `CC(C)/C=C/c1sc(-c2nccs2)nc1C(=O)NCCCCC(=O)NO`: on Histone deacetylase 1, half-maximal inhibition (IC50) was put at 10 nM.

In the case of `O=C(CCCCNC(=O)c1nc(-c2nccs2)sc1C1CC1)NO` [BISTHIANOSTAT], the peak concentration (Cmax) in “in vivo [2]” turned out to be 7040 ng/mL. Also, the bioavailability in the series “in vivo [3]” worked out at 119%.

With `CCCCCCCC(=O)SCC/C=C/[C@@H]1CC(=O)NCc2nc(cs2)C2=N[C@@](C)(CS2)C(=O)N[C@@H](C(C)C)C(=O)O1` [LARGAZOLE], the results for the half-maximal inhibitory concentration (IC50) (on Histone deacetylase 3; in series [1]) were 245 nM and 11500 nM, respectively.

Usually IC50 stands for the concentration at which inhibition is half-maximal. As usually defined, the Cmax is the maximum level reached in the sampled fluid or tissue.

The values are drawn from ChEMBL document CHEMBL3286308, “Potent and orally efficacious bisthiazole-based histone deacetylase inhibitors” (ACS Med Chem Lett, 2014).
